Our source for the self-cleavage values is the RNAGym collection of RNA variant scans (doi:10.7554/elife.90254).

B1: LINE1-mini (parent)
chain: GGCAGAGCUCAACACAGCGUGGCAAAGUGGCUGUGGCUAGACUGCC

The source gives no read counts; variants with many changes may rest on few reads.

In the series the parent is B1. In words: self-cleavage, relative activity (ratio to wild type); higher = more cleavage; in vitro, sequencing; the parent is a self-cleaving ribozyme.
Turning to GGCAGAGAUCAAUACAGUGUGACAAAGUGGCUGUGGCUAGACUGCC [C8A C13U C18U G22A], the self-cleavage was determined as 0.37.

Turning to GGCAGAGAUGAAGUCAGCGUGGCAAAGUGGCUGUGGCUAGACUGCC [C8A C10G C13G A14U], the self-cleavage was determined as 0.03.

For GGCAGAGAUAAACACGGUGUGGCAAAGUGGCUGUGGCUACACUGCC [C8A C10A A16G C18U G40C], the self-cleavage turned out to be 0.08.

As to GGCAGAGAUCAAUACAGCGUGGGAAAGUGGCUGUGGCUAGACUGCU [C8A C13U C23G C46U], the self-cleavage is 0.14.

Regarding GGCAGAGAUUAACACAGCGUGGCAAAGUGGUUGUGGCUAGGCUGCG [C8A C10U C31U A41G C46G], the self-cleavage stood at 0.02.

GGCAGAGAUCAACACAGAGUGGCAAAGUGGCUGUGGCUAGAUUGCC [C8A C18A C42U]: the self-cleavage was 0.17.

For the variant GGCAGAGAUUAACACAGCGUGCCAAAGUGGCUGUGGCUAGUCUGCC [C8A C10U G22C A41U], the self-cleavage was 0.02.

Regarding GGCAGAGAUCAACAGGGCGUGGCAAAGUGGCUGUAGCUAGACUGCC [C8A C15G A16G G35A], the self-cleavage was 0.09.

With GGCAGAGAUCAACAUAGCGUGGCAAAGUGGUUGUGGCUAGAGUGCC [C8A C15U C31U C42G], the self-cleavage came to 0.11.

Consider GGCAGAGAUCAAUACAGCGUGGCAAAGUGGCUGUGGCUAGACUGCU [C8A C13U C46U], for which the self-cleavage is 0.74.

As for GGCAGAGAUGGACACUGCGUGGCAAAGUGGCUGUGGCUAGACUGCC [C8A C10G A11G A16U], the self-cleavage came out at 0.

As for GGCAGAGAUCAACAUAGCGUGACAAAGUGGCUCUGGCUAGACUGCC [C8A C15U G22A G33C], the self-cleavage worked out at 0.08.

For GGCAGAGAUCAACAUAGCGUUGCAAAGUGGCUGUGGCUAGACUGCC [C8A C15U G21U], the self-cleavage stood at 0.16.

As for GGCAGAGAUUAUGACAGAGUGGCAAAGUGGCUGUGGCUAGACUGCC [C8A C10U A12U C13G C18A], the self-cleavage was found to be 0.03.

Consider GGCAGAGAUCAAAACAGUGUGGCAGAGCGGCUGUGGUUGGACUGCC [C8A C13A C18U A25G U28C C37U A39G], for which the self-cleavage came to 0.41.

Take GGCAGAGAUGAACUCAGCGUGGCAAAGUGGCUGUGGCUAGACUGCC [C8A C10G A14U]: the self-cleavage is 0.03.

In the case of GGCAGAGAUUAACACAGCGUGGCAAAGUGUCUGUGGCUAGACUGCC [C8A C10U G30U], the self-cleavage turned out to be 0.24.

For GGCAGAGAUCAACAUAGCCUGGCAUAGUGGCUGUGGCUAGACUGCC [C8A C15U G19C A25U], the self-cleavage stood at 0.18.

As for GGCAGAGAUGAAUACAGUGUGGCAAUGUGGCUGUGGCAAGACUGAC [C8A C10G C13U C18U A26U U38A C45A], the self-cleavage amounted to 0.

For GGCAGAGAUCAACACUGCGUGGCAAAGAGGCUGUGGCUAGACUGCC [C8A A16U U28A], the self-cleavage was determined as 0.08.

For GGCAGAGAUCAAAACAGGGUGGCAAAGUGGCUGUGGCAAAACUGCC [C8A C13A C18G U38A G40A], the self-cleavage came to 0.08.

GGCAGAGAUCAAAACAGCGUGGUAAAGUGGCUGUGGCUAGACUGCC [C8A C13A C23U]: the self-cleavage turned out to be 0.33.

In the case of GGCAGAGAUCAAAACAGCGUGGAAAAGUGGCUGUGGCUAGACUGCC [C8A C13A C23A], the self-cleavage was 0.44.

GGCAGAGAUCAACAAAGCGUGGCAAAGUGGCUGAGGGUAGACUGCC [C8A C15A U34A C37G]: the self-cleavage is 0.36.

On to GGCAGAGAUCAACAGAGCGUAGCAAAGUGGCUGUGGCUAGACUGCC [C8A C15G G21A], for which the self-cleavage turned out to be 0.59.

As to GGCAGAGAUCAACACAGCGUGGCAAGGUGACUGUGGCUAGACUGCC [C8A A26G G30A], the self-cleavage is 0.39.

GGCAGAGAUCAACACAGCGUGGCAACGCGGCUGUGGCUAGACUGCA [C8A A26C U28C C46A]: the self-cleavage was 0.

In the case of GGCAGAGAUCAAAACAGCGUGUCAAAGUGGCUGUGGCUAGACUGCC [C8A C13A G22U], the self-cleavage is 0.25.

With GGCAGAGAUCAACAUAGCGUGGCAGAGUGGCUGUGGCUAGACUGCC [C8A C15U A25G], the self-cleavage was 0.12.

As for GGCAGAGAUCAACAUAGCGUGGCACAGUGGCUGUGGCUAGACUGCC [C8A C15U A25C], the self-cleavage turned out to be 0.41.

As for GGCAGAGAUCAAAACAGCAUAACAAAGCGCCUGUGGCUAGACUGCC [C8A C13A G19A G21A G22A U28C G30C], the self-cleavage was found to be 0.16.

As for GGCAGAGAUUAACAGAGCGUGGCAAAGUGGCUGUGACUAGACUCCC [C8A C10U C15G G36A G44C], the self-cleavage is 0.1.

With GGCAGAGAUAAACACAGCGUAGCAAAGUGGCUGUGGCUAGAAUGCC [C8A C10A G21A C42A], the self-cleavage came out at 0.35.

GGCAGAGAUCAACACAGAGUGGCAAAGUGGCUGUGGCUGGACUGCC [C8A C18A A39G]: the self-cleavage was found to be 0.11.

On to GGCAGAGAUCAAAACCGCGUGGCAAAGUGGCUGUGGCUGGACUGCC [C8A C13A A16C A39G], for which the self-cleavage amounted to 0.17.

On to GGCAGAGAUCAACACAGGGUGUCAAAGUGGCUGUGGCUAGACUGCC [C8A C18G G22U], for which the self-cleavage worked out at 0.18.

For GGCAGAGAUCAAAACAGCGUGGCAAAGUUGCUGUGGCUAUACUGCC [C8A C13A G29U G40U], the self-cleavage amounted to 0.06.

For GGCAGAGAUCAACACAGCGUGGCAGGGUGGCUGUGGCUAGACUGCC [C8A A25G A26G], the self-cleavage amounted to 0.07.

For GGCAGAGAUCAAGACUGCGUGGCAAAGUGGCUGUGCCUAGACUGAC [C8A C13G A16U G36C C45A], the self-cleavage amounted to 0.09.

For the variant GGCAGAGAUCAAAACAGCGUGGCAAAGUGGGUUUCGCUAGACUGCC [C8A C13A C31G G33U G35C], the self-cleavage worked out at 0.02.

As to GGCAGAGAUCAACAUAGCGUGGCAAAGUGGCUGUGGCUUGACUGCC [C8A C15U A39U], the self-cleavage was found to be 0.49.

On to GGCAGAGAUCAACAAAGAGUGGCAAAGUGGCUGUGGCUAGACUGCC [C8A C15A C18A], for which the self-cleavage worked out at 0.07.

On to GGCAGAGAUAAACACAGCGUGGCAAAGUGGCUGAGGCUCGACUGCC [C8A C10A U34A A39C], for which the self-cleavage was 0.03.

On to GGCAGAGAUCAACACAGUGUGGCAAAGUGGCUGUGGCUAGACUUCC [C8A C18U G44U], for which the self-cleavage turned out to be 0.19.

For GGCAGAGAUCAACACAGCGUGGCUAAGUGGAUGUGGCUAGACUGCC [C8A A24U C31A], the self-cleavage is 0.07.

Turning to GGCAGAGAUCAACAUAGCGUGGUAAAGUGGGUGUGGCUAGACAGCC [C8A C15U C23U C31G U43A], the self-cleavage is 0.08.

Consider GGCAGAGAUCAAUUCAGCGUGGCAAAGUGGCUGUGGCUAGACUGCC [C8A C13U A14U], for which the self-cleavage came out at 0.4.

For GGCAGAGAUCAAUCCAGCGUGGCAAAGUGGCUGUGGCUAGACUGCC [C8A C13U A14C], the self-cleavage came out at 0.19.

Take GGCAGAGAUCAAUACAGCGUGGCCAAGUGGCUGUGGCUAGACUGCC [C8A C13U A24C]: the self-cleavage is 0.24.

For the variant GGCAGAGAUCAACACAGCGUGGCAGAGAAGCUGUUGCUAGACUGCC [C8A A25G U28A G29A G35U], the self-cleavage is 0.08.

Turning to GGCAGAGAUUAACACGGCGUGGCAUAGUGGCUGUGGCUAGACUGCC [C8A C10U A16G A25U], the self-cleavage came to 0.05.

Regarding GGCAGAGAUCAACAAAGCGUGGCAAAGUGGCUGUGGCUAGUCUGCC [C8A C15A A41U], the self-cleavage came to 0.59.

GGCAGAGAUUAACCCAGCGUGGCAAAGUGGCUGUGGCUAGCCUGCC [C8A C10U A14C A41C]: the self-cleavage came out at 0.02.

As to GGCAGAGAUCAACACAGCGUGGCUUACUGGCUGUGGCUAGACUGCA [C8A A24U A25U G27C C46A], the self-cleavage was 0.13.

Regarding GGCAGAGAUGAACACAGUGUGGCAAAGUGGCUGUGCAUAUACUGCC [C8A C10G C18U G36C C37A G40U], the self-cleavage was found to be 0.01.

As for GGCAGAGAUCAACAAAGCGUGGCAAAGUGGUUGCGGCUAGACUGCC [C8A C15A C31U U34C], the self-cleavage is 0.09.
